First the molecules themselves.
B1: tRNA (parent)
chain: CUCUCGGUAGCCAAGUUGGUUUAAGGCGCAAGACUUUAAUUUAUCACUACGAAAUCUUGAGAUCGGGCGUUCGACUCGCCCCCGGGAGAUUUUUUCCUCGAGCAA

Variants at the background level are over-represented here.

In the series the parent is B1. The series can be described thus: nonsense suppression (GFP-seq) (ratio to wild type); higher = more function; SUP4oc tRNA, yeast GFP reporter sort-seq. The method, boiled down: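 Raffinose/galactose medium with 80 mg/L adenine was used to grow yeast carrying genome-integrated tRNA variants (~3% random-mutation library), RFP, and a galactose-driven GFP ochre reporter. Cells went into GFP/RFP bins, which were Illumina-sequenced, and variants with ≥100 reads and ≥30 cells were scored. Nonsense suppression (GFPSEQ) is the per-bin median GFP/RFP weighted by estimated cell share and expressed relative to the unmutated parent tRNA.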
In the case of C27U C29G A30C C81A A89U, the nonsense suppression is not above 0.026.
For the variant C3G U70G G88C, the nonsense suppression was not above 0.026.
On to U20G A23C G65A, for which the nonsense suppression was not above 0.026.
As for A9U A31G G32U U63G, the nonsense suppression is not above 0.026.
As for G25U C56A G86U, the nonsense suppression was not above 0.026.
Consider C12A A62G G78A, for which the nonsense suppression is not above 0.026.
With G86U A89G, the nonsense suppression is not above 0.026.
On to G59A G67A C77G, for which the nonsense suppression is not above 0.026.
For the variant C3A G6U G7A, the nonsense suppression is not above 0.026.
As for U8G A14G G15C U71G, the figure is not above 0.026; as for U17C U22A U70C, not above 0.026; as for G7C U21A A24G C56G U71C C79G, not above 0.026.
As for G78U C82U, the nonsense suppression was found to be 0.105.
Regarding G15A C77U G85A G88U, the nonsense suppression is not above 0.026.
For G15U U22G C34A A62C G65A U70A, the nonsense suppression was not above 0.026.
As for C1U A13U A14C U58A G65A, the figure is not above 0.026.
As for C3U U57A C79A, the figure is not above 0.026; as for A13U G28U U55G, not above 0.026.
As to U4A G25A, the nonsense suppression was not above 0.026.
In the case of U17A U63A U76C it was 0.155; in that of C11G G78A, not above 0.026; in that of C3G C34G C77A, not above 0.026.
Take A31U G73A C79G: the nonsense suppression was not above 0.026.
Consider U2G C56U, for which the nonsense suppression was not above 0.026.
U20G G32C C68U: the nonsense suppression is not above 0.026.
With U55A G86A, the nonsense suppression was not above 0.026.
On to G10A C77U A87C, for which the nonsense suppression is not above 0.026.
For C5U G84C, the nonsense suppression is not above 0.026.
U58G G61A A89U: the nonsense suppression is not above 0.026.
Regarding U58G G69A A89U, the nonsense suppression is not above 0.026.
With G10C G32U A54U U55A C68G G69C G86U, the nonsense suppression is not above 0.026.
In the case of G7C C56G, the nonsense suppression is not above 0.026.
As for U16G C64G, the nonsense suppression is not above 0.026.
In the case of A14C G19U A23G U55C G69C, the nonsense suppression is not above 0.026.
As for C5U U17A U63C C80A, the nonsense suppression is not above 0.026.
In the case of C27U G69C G78A it was not above 0.026; in that of G26A G32U G84C, not above 0.026.
As to G6U G15C G26U A54G, the nonsense suppression is not above 0.026.
For A23U G69A, the nonsense suppression was not above 0.026.
For the variant U21C U22C G26U, the nonsense suppression was not above 0.026.
With C1U A33G U55A A62U U63A, the nonsense suppression was not above 0.026.
For the variant A9C G25C, the nonsense suppression is not above 0.026.
Turning to A24G G84U, the nonsense suppression is not above 0.026.
Take A24C A31U G61C G78C: the nonsense suppression is not above 0.026.
In the case of U4A G32U it was not above 0.026.
On to C1U G6U, for which the nonsense suppression is not above 0.026.
U22G U76A C81G: the nonsense suppression was not above 0.026.
In the case of C1U G7A G32A U35C G88U, the nonsense suppression is not above 0.026.
Take G10U A14C G15U G19U: the nonsense suppression is not above 0.026.
With G26C A60U U76C, the nonsense suppression is not above 0.026.
Take C11U U70C: the nonsense suppression is not above 0.026.
For A9C A13G, the nonsense suppression amounted to 0.0462.
In the case of U20C C79U G84U, the nonsense suppression was not above 0.026.
As to C3U A89C, the nonsense suppression was 0.0874.
Take G25U A30G U70A A87C: the nonsense suppression is not above 0.026.
As for G6C U57C G59U, the figure is not above 0.026.
As for A13C A87G, the figure is 0.127; as for A31C U57A G73C G88C, not above 0.026; as for A31C G66C G85U, not above 0.026.
As for U4A A33G U57C, the figure is not above 0.026; as for A31G G67U U76G C81A, not above 0.026.
On to A9U A74C, for which the nonsense suppression is not above 0.026.
As to G19A U58A, the nonsense suppression is not above 0.026.
As to G61C C72G, the nonsense suppression came to 0.0291.
C5A G15A U21A U58A: the nonsense suppression was not above 0.026.
In the case of U8A A30U G61A U76G, the nonsense suppression is not above 0.026.
As for A13C C68G G88A, the figure is not above 0.026; as for U4C U8G G78C, not above 0.026.
Regarding G28U A54U C68A C72U C75U, the nonsense suppression was not above 0.026.
In the case of C29A U57A G66C G86U it was not above 0.026; in that of C3A A31C C79A, not above 0.026; in that of C3A G67U, not above 0.026.
As to A9G C81U, the nonsense suppression came to 0.028.
As to U21A A30C G65A, the nonsense suppression is not above 0.026.
As for C11U G25C C34U, the figure is not above 0.026; as for G7U U17A C79A, not above 0.026.
C64G G65U U70C G73C: the nonsense suppression was not above 0.026.
On to G25A A62U, for which the nonsense suppression is not above 0.026.
Regarding U2G A9U G67C, the nonsense suppression is not above 0.026.
As for G6U C56A, the nonsense suppression is not above 0.026.
For the variant A30C U63C C68A, the nonsense suppression was not above 0.026.
C3G C56A: the nonsense suppression is not above 0.026.
For the variant C5U U20A A24G C64U, the nonsense suppression was not above 0.026.
Regarding U4C A9G G67C U70G, the nonsense suppression was not above 0.026.
As for C29A C56U, the figure is not above 0.026; as for U17G U21G G73U, not above 0.026.
For C11A G78C, the nonsense suppression was not above 0.026.
On to C1A U57A, for which the nonsense suppression was not above 0.026.
Regarding A62U C79G, the nonsense suppression is not above 0.026.
For the variant A14U G19C A23U C34U, the nonsense suppression is not above 0.026.
In the case of C12A A13C G18C A24U, the nonsense suppression was not above 0.026.
Regarding A13U C72G, the nonsense suppression was found to be 0.032.
A9U G69A C77U: the nonsense suppression is not above 0.026.
As for C1G A30G G66U, the nonsense suppression was not above 0.026.
As for G25A G66U C79G, the nonsense suppression was not above 0.026.
In the case of U2A C34G, the nonsense suppression is not above 0.026.
As for G32U U63G G65U, the figure is not above 0.026.
As to U57C U63A G84C, the nonsense suppression is not above 0.026.
Turning to G69C G86C, the nonsense suppression is not above 0.026.
Regarding C11G A60U A62C C79G C81A G84C, the nonsense suppression was not above 0.026.
Take U8G A9G: the nonsense suppression is not above 0.026.
As for U16C C56A C64A, the figure is not above 0.026; as for U16A U20A U22A G59C, not above 0.026.
In the case of A31G C34U A54C U55G it was not above 0.026.
As for U71C C77G G84A, the figure is not above 0.026; as for U21G U57A, not above 0.026.
Regarding G7A U20G C34U A62C, the nonsense suppression was not above 0.026.
In the case of G69U G85U it was not above 0.026; in that of G26C A30C C81U, not above 0.026.
As to C12U C27U G61C, the nonsense suppression was not above 0.026.
As for G15C U58G G69A, the nonsense suppression was not above 0.026.
With C1A A30G C72G, the nonsense suppression is not above 0.026.
As for C11G G15A A30C C34A, the nonsense suppression was not above 0.026.
On to G15U G19A A54U A62G C79A, for which the nonsense suppression is not above 0.026.
Turning to G19A G32U C34G G78U G86C, the nonsense suppression was not above 0.026.
For C11U C29U C64A, the nonsense suppression was not above 0.026.
With A14U U71G C72G, the nonsense suppression was not above 0.026.
On to U21G G61A U63G C75U A87U, for which the nonsense suppression is not above 0.026.
A24G C68A C82G G84U: the nonsense suppression is not above 0.026.
Consider A31C A54G, for which the nonsense suppression is not above 0.026.
For the variant C1U U2C C56G U58C A87U, the nonsense suppression is not above 0.026.
As to U16C G85C G88U, the nonsense suppression was not above 0.026.
With U8G A60C C72A, the nonsense suppression is not above 0.026.
In the case of A14U G19U A24G A30U G61U C75G it was not above 0.026; in that of C11G U16C G69A G85C A87G, not above 0.026; in that of A24C A54C U76A, not above 0.026.
In the case of G26U C83U it was not above 0.026; in that of C82G C83U G84A, not above 0.026.
As for C5A A54G, the figure is not above 0.026; as for U55C G59U, not above 0.026; as for C1G U55G G61C, not above 0.026.
On to A24C C27A C79A, for which the nonsense suppression is not above 0.026.
Regarding C1U G15U, the nonsense suppression is not above 0.026.
As for G69U U76G, the figure is not above 0.026; as for U63A G84C G85A, not above 0.026.
C3U G18C C64G: the nonsense suppression was not above 0.026.
Regarding G26U A60C A74C, the nonsense suppression is not above 0.026.
C12U U63G: the nonsense suppression came out at 0.121.
With A60U U71C A74C A87G, the nonsense suppression was not above 0.026.
With C34G A74C G86A, the nonsense suppression was not above 0.026.
Take G10C U17C G78A A87C: the nonsense suppression is not above 0.026.
Turning to A31C A87C, the nonsense suppression is not above 0.026.
As to A23C C56G G78U G86U, the nonsense suppression was not above 0.026.
For the variant C3U G67A A89G, the nonsense suppression was not above 0.026.
On to U57C U63A, for which the nonsense suppression was not above 0.026.
For the variant A33G G59A C77A C83A G88A, the nonsense suppression was not above 0.026.
In the case of C12G G19C G61C G84A, the nonsense suppression was not above 0.026.
With C3U C11G, the nonsense suppression was not above 0.026.
C82A G88A: the nonsense suppression is not above 0.026.
As for U55G A87C, the figure is not above 0.026; as for U20C G66C, not above 0.026; as for C34A U35G, not above 0.026.
Take C34U U63C G88C: the nonsense suppression is not above 0.026.
On to U4G C29A A74U U76A C79G, for which the nonsense suppression was not above 0.026.
Take C11A G32A C83U: the nonsense suppression was not above 0.026.
Take A9C G59A C82U: the nonsense suppression is not above 0.026.
In the case of U76G C79A G85U, the nonsense suppression is not above 0.026.
As for A13U C79U, the figure is 0.175; as for G15C A24G C77U, not above 0.026; as for C12A G19C G86U, not above 0.026.
For the variant U16A U58G U76C G78A, the nonsense suppression is not above 0.026.
As for A33G G67C C77G, the figure is not above 0.026.
In the case of A62U C68A C81A, the nonsense suppression was not above 0.026.
As for C11A C83A, the figure is not above 0.026; as for G26U A31G G65C G86A, not above 0.026; as for U63G U76A, 0.433.
Consider A30U A60U C68U, for which the nonsense suppression worked out at 0.0354.

The values above are taken from the RNAGym collection of RNA variant scans (doi:10.1101/gad.245936.114).
